# In all, about 150,000 compounds went through this assay and about 540 (0.36%) showed an effect of 50% or more. This is one part of the list.
# Test system: Plasmodium falciparum
# Assay: Primary screen in NF54 nanoGlo assay, in single point, at 2uM, 72h; a lower Z score goes with more inhibition
# Format: functional, Erythrocyte
# Settings: timepoint 72 hour
SMILES,% Inhibition [%],Z score
CS(=O)(=O)NCCN1CCC2(CCCC2)CC1,-3,0.42
Cc1ccc(C(=O)N[C@H]2CO[C@H]3[C@@H]2OC[C@@H]3n2nnnc2-c2ccccc2)cc1,1,-0.15
CNCC(=O)N(Cc1ccccc1)Cc1cccc(C)n1,-1,0.16
Cc1cc(N[C@H](C(=O)O)C2CCCCC2)nc(C(C)C)n1,-17,1.74
CC(C)c1nc2cc(C(=O)N3CCNC(=O)[C@@H]3c3ccc(F)cc3)ccc2o1,-7,1.03
CC(C)Oc1ccc(C(=O)N2CCC(c3nc4ccccc4o3)CC2)cc1,-7,1.13
COc1ccc(-c2cc(C(=O)Oc3ccc(C)cc3)c3ccccc3n2)cc1,-9,1.5
CC[C@@H](CNC(=NC)NCc1ccon1)Oc1ccccc1,-6,0.83
Cc1c(C(=O)NC(C)C2CCCO2)cnn1C1CCS(=O)(=O)C1 (stereo not given),-7,0.77
Cc1nc(NC(=O)C(=O)NCC2(O)CCCCC2)sc1C,2,-0.23
O=C(O)c1cc(NS(=O)(=O)c2cccs2)ccc1N1CCC(N2CCCCC2)CC1,-6,0.62
CCC1=NO[C@H](C(=O)NC2CCS(=O)(=O)CC2)C1,-11,1.65
CC(C)(C)c1noc(Cn2cc(CCc3ccccc3)nn2)n1,-4,0.86
CC(C)n1cnnc1[C@H]1CCCN(c2ncc(Cl)cc2Cl)C1,-9,1.65
COCCn1c(=O)c(CNC[C@H]2COc3ccccc3O2)cc2cc(C)ccc21,-12,1.78
Cc1cc(-c2cccc(C(=O)NCCc3ncnn3C)c2)cc(C)n1,-4,0.51
O=C(NC[C@H]1CCCO1)c1coc(CN(Cc2ccc(C(F)(F)F)cc2)Cc2ccc3c(c2)OCO3)n1,4,-0.35
Cc1noc(CCCC(=O)N2CCC[C@H]2c2ccncc2)n1,-4,0.57
Cc1nnnn1[C@@H](C(=O)N1CCC2(CC1)COC(=O)O2)c1ccccc1,-3,0.33
Cc1cnc(NC(=O)c2cc3c(s2)CCCC3)s1,-12,1
O=C(c1ccncc1)n1nc(Cc2ccccc2)c2ccccc2c1=O,-7,1.05
CN(CC1(C)COC1)C(=O)[C@@H]1CCCCCN1C,-2,0.36

SMILES,% Inhibition [%],Z score
O=C(CN(CC1CCCO1)C(=O)C1CC1(Cl)Cl)N1CCCC1 (stereo not given),-19,1.85
Cn1[nH]c(=O)c2cc(Br)cnc21,-12,2.44
CN(CCCN=C(N)NC1CCC(O)CC1)c1ccccc1 (stereo not given),-19,1.78
COC(=O)N1CC[C@H](NC(=O)OC(C)(C)C)C1,33,-0.92
O=C(O)[C@H]1CCCN(C(=O)c2ccc(-c3ccccc3)[nH]2)C1,-10,1.4
CN(CC(=O)Nc1cc(F)cc(F)c1)c1cc(C(F)(F)F)nc(-c2ccncc2)n1,-1,0.2
CC1(C)CN(C(=O)CCc2ccccn2)C[C@]1(C)O,-6,1.1
CC(C)C[C@H]1C(=O)NCCCN1C(=O)NC1CCCCC1,6,-0.47
COCCc1ccc2oc(NCc3cnn(C)c3)nc2c1,3,-0.41
O=C(Nc1nc2c(F)cccc2s1)[C@H]1CCOC1,-11,2.18
Cc1noc(C)c1S(=O)(=O)NCc1noc(C(F)(F)F)n1,-8,1.52
COc1ccc(F)cc1C(NC(=O)c1ccnnc1)[C@H]1C[C@H](O)C1 (stereo not given in full),29,-3.81
CN(C)C[C@H]1CCN(C(=O)N(c2ccccc2)c2ccccc2)C1,11,-1.58
C[C@H]1CCc2ccccc2N1CCNC1=NS(=O)(=O)c2ccccc21,-10,1.31
CC(C)(C)OC(=O)NCCN(Cc1ccccc1)C1CC1,0,-0.06
CC(C)Cc1cnc(NC(=O)N(C)CCCn2ccnc2)s1,-2,0.26
Cc1cc(Cl)c2c(c1)[C@@H](NCc1cncn1C)CCCO2,2,-0.27
O=C(C1CC1c1ccccc1)N1CCOC2(CCC2)C1 (stereo not given),-7,0.77
Cc1ccc(S(=O)(=O)NCc2nc(C(=O)N3CCC(C)CC3)c(C)o2)cc1C,5,-0.68
COc1ccc(NC(=O)C2[C@@H]3C=C[C@]4(O3)C(C(=O)NC3CCCCC3)N(Cc3ccccc3Cl)C(=O)[C@H]24)cc1 (stereo not given in full),-5,0.81
Cc1ocnc1C(=O)NCCc1c[nH]c2ccccc12,-34,3.97
CC(C(=O)O)C(NC(=O)c1cc(N2CCCC2=O)ccc1F)c1ccccc1 (stereo not given),-8,1

SMILES,% Inhibition [%],Z score
COCCN(CCOc1ccccc1F)C(=O)c1n[nH]c2c1COCC2,-13,2.45
CC(C)c1nnc(-c2sccc2NC(=O)c2ccc(C#N)cc2)o1,-9,0.92
CCCC(=O)Nc1ccc(CNC(=O)c2cncn2C)cc1,-6,0.91
CN(C[C@H]1CC(=O)N(C2CCCC2)C1)C(=O)c1ccc(-c2cncnc2)cc1,-3,0.51
CC(=O)Nc1nonc1N(C(C)=O)C(C)=O,-7,1.23
CC1(C)CCc2nc(CNCC3(CS(C)(=O)=O)CC3)sc2C1,-16,2.98
NC(=NOCC(=O)NC1CCCCCC1)c1ccc(Cl)cc1,-15,2.97
Cc1cccc(N2CCN(C(=O)C3CCCN(S(=O)(=O)c4cccc5nonc45)C3)CC2C)c1 (stereo not given),3,-0.48
CCC1CN(Cc2nc3ccc(OC)nc3[nH]2)CC1N1CCOCC1 (stereo not given),-1,0.08
C=C[C@H](C)NC(=O)N1CCN(c2cccc3[nH]c(=O)[nH]c23)CC1,-14,2.87
O=C(Cc1ccccc1)Nc1c(C(=O)c2ccccc2)oc2ccccc12,3,-0.5
Cc1ccc(S(=O)(=O)Nc2ccc(N3CCN(C(=O)c4ccc(Cl)cc4Cl)CC3)nc2)cc1,-2,0.2
Cc1ccc(-n2c(N3CCOCC3)nc3cc(C(=O)NCCc4ccccc4)ccc3c2=O)cc1C,-5,0.86
c1ccc(C2(c3noc(CCc4cn[nH]c4)n3)CC2)cc1,-3,0.44
CC(C)C(=O)NC[C@H]1CCN(C(=O)c2csc3c2CCCC3)C[C@@H]1O,-6,1.08
O=C(c1cc(-c2ccccc2)on1)N1CC[C@@]2(CCCN(CC3CC3)C2=O)C1,-13,2.1
CC1CC(CNC(=O)Nc2ccccc2N(C)C2CCCC2)CCO1 (stereo not given),-13,1.21
CCn1nc(C)c2c1c(=O)n(Cc1ccc(F)cc1)c(=O)n2CC(=O)NC1CCCC1,-20,1.97
Cc1ccc(C)c(NC(=O)CC(=O)NCCCN2CCCC2)c1,-4,0.44
CC[C@](C)(O)CN1CCN(S(=O)(=O)c2cc(C)sc2C)CC1,2,-0.34
COc1ccc([C@H](C)NS(C)(=O)=O)cc1F,-5,0.98
c1snnc1CN[C@H]1CCCc2cn[nH]c21,3,-0.65

SMILES,% Inhibition [%],Z score
Cc1cnn([C@@H](C)CNS(=O)(=O)N2CCCC2)c1,-3,0.45
c1cc(-c2nccnc2N2CCCC2)n2nccc2c1,-5,0.96
Cc1cnc(CC2CCN(C(=O)[C@H]3CCOC3)CC2)n1Cc1ccccc1,-9,1.28
COC(=O)c1ncn(Cc2nnc(-c3ccc(Cl)cc3)o2)n1,-11,1.94
CC(C)(Oc1ccc(C2CC2(Cl)Cl)cc1)C(=O)NC1CCS(=O)(=O)C1 (stereo not given),-9,0.96
O=C(c1ccc(-c2cncnc2)o1)N1CCOCC1,-14,1.26
COc1ccccc1NC(=O)Cn1c(=O)n(-c2ccc(C)cc2)c(=O)c2c1cc(C)n2C,-4,0.4
CC(C)CC[C@@H](CCNCc1ccco1)c1ccco1,-10,1.33
Cc1ccc(CCNC(=O)N[C@@H](C)CCc2cccn2C)cn1,0,0.07
CN(C)C(=O)CC1CCCCC1NC(=O)OC(C)(C)C (stereo not given),-12,1.23
C=CCn1cccc(C(=O)N(C)[C@@H](C)C2CC2)c1=O,-12,1.22
CC(C)N1CCC(NC(=O)C(=O)c2ccc3c(c2)CCC3)CC1,2,-0.23
COc1ccc(CN2CC[C@H](c3nc4cccnc4n3C)C2)cc1,-2,0.21
CC1C(Nc2ccnc(C#N)c2)CC2CCC1N2C(=O)OC(C)(C)C (stereo not given),-12,1.33
Cc1nccc(N2CC[C@H]3[C@H](CCC(=O)N3CCc3cccs3)C2)n1,-18,3.04
c1cnn(Cc2ncnn2-c2ccc3c(c2)OCCO3)n1,-12,2.04
Cc1ccc(Cl)cc1NC(=O)N(C)CCc1noc(C(=O)NCc2ccc(Cl)cc2)n1,-15,1.35
CCC1(CNC(=O)c2cccc(OCc3noc(C)n3)c2)CCCC1,-19,2.02
O=c1ccn2c(n1)O[C@H]1[C@H](OC3CCCCO3)[C@@H](COC3CCCCO3)O[C@H]12 (stereo not given in full),35,-4.46
